# Reference: the RNAGym collection of RNA variant scans (doi:10.1073/pnas.2313332121)
# This sample is rich in variants without activity.
# B1: TPR 5TU (parent)
# chain: GGAUCUUCUCGAUCUAACAAAAAAGACAAAUCUGCCACAAAGCUUGAGAGCAUCUUCGGAUGCAGAGGCGGCAGCCUUCGGUGGCGCGAUAGCGCCAACGUUCUCAACUAUGACACGCAAAACGCGUGCUCCGUUGAAUGGAGUUUAUCAUG
# Variants of: B1
# Experiment: polymerase ribozyme fitness, log enrichment relative to wild type (log ratio); higher = more active; in vitro selection for triplet polymerase activity
# Outline: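 Libraries of mutants in each subunit of a heterodimeric triplet polymerase ribozyme were generated by PCR and transcribed. In triplicate, each went through one in vitro selection round: annealing with biotinylated primer, partner subunit and triplets; frozen incubation at −7 °C; gel excision of extended constructs; streptavidin-bead capture; RT-PCR. Fitness, taken from Illumina sequencing of input and output libraries, is the logarithm of a genotype's enrichment over wild-type enrichment, averaged across replicates with inverse-variance weights. The logarithm is base 2, and genotypes needed ≥10 input reads and ≥1 read per output to be kept.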
row,Variant,polymerase ribozyme fitness (log ratio)
1,U6G G59A G92A C95A C105U,-4.19
2,U6G G50C U56A G65A A73C C96U U139C,≤ -4.2
3,U6C A26U A52U G84U,≤ -4.2
4,U6C U44A U56A U61C A91G U130A C132U A150C U151G,≤ -4.2
5,U6G U53G A66U C93G,≤ -4.2
6,U7C A97G U111G,≤ -4.2
7,U6G U53A C125G C132U U148C,≤ -4.2
8,U7A G74A C79U C85U C87A A110U,≤ -4.2
9,U6G A40U G68A G92U G136U,≤ -4.2
10,U6G A19U G50C G88U C99G,≤ -4.2
11,U7C C8U C10U A16C U33G A47C A64U G136C U144G,≤ -4.2
12,U6G A23C G34U U56A A73U C87G,≤ -4.2
13,U6G A17C A23C C36G C57G C79A G81A G94C A97C A119C,≤ -4.2
14,U6C G70A C87U,≤ -4.2
15,U6G C54U G81A U135G,-3.31
16,U6G C8U U31C C76G U109G A119G G141C,≤ -4.2
17,U6G G58A C87G G152U,≤ -4.2
18,U7A A47C C93U C96A A106G G140A,≤ -4.2
19,U6C A89G C96U U135C G140U,≤ -4.2
20,U6G C10G C14A A49C C85A C93U C116U,≤ -4.2
21,U6C A39U C72A U82C G84U U144G,≤ -4.2

row,Variant,polymerase ribozyme fitness (log ratio)
1,U7A C36G A39U A89G G94C A137U A138U,≤ -4.2
2,U6G U56A G70C C85G A107U U144G,≤ -4.2
3,U6G C10G,-3.01
4,U6G C14U,-1.09
5,U7C A29U C57U C95G G140U,≤ -4.2
6,U6G C43G A49U G86A C96U C105A G141U,≤ -4.2
7,U6G A41G G48U C54U A122U,-0.949
8,U7A A24U A52U C87A G126A C131U G136A A147U C149U,≤ -4.2
9,U6C A52C U55A G83A U130G,≤ -4.2
10,U7A U111G,-4.19
11,U6C A16G G25A C32A G94A A98U A106G U135G,≤ -4.2
12,U6C C87A G94A U148A,≤ -4.2
13,U7A U45G A49C G50C C87U C96A,≤ -4.2
14,U7A A29U A49C U53A G84C U102C,≤ -4.2
15,U6C A41G U56G G59A U61G C76A A91C C95G G124A,≤ -4.2
16,U6G G42C U61C C93U U111G U148A C149A,≤ -4.2
17,U6C U82A C99U G136U,-3.43
18,U7C C14G G58C C85A U102G C116G A119G,≤ -4.2
19,U6G C36A U56G C87G U90G U144G C149U,≤ -4.2
20,U7C A23U C87A A89G C116U C125U,≤ -4.2
21,U7A U55A C79A C85U A121C C132U U134C U135C,≤ -4.2

row,Variant,polymerase ribozyme fitness (log ratio)
1,U7A U33G C79A C116U U144C,≤ -4.2
2,U7A C27U U101G U102A U145C,≤ -4.2
3,U7A C27U U55G A66C G70U A89U C95A C118A G133C,≤ -4.2
4,U7A C54A C72A,≤ -4.2
5,U7A C85G C87G A119C G126A A142G U148C,≤ -4.2
6,U6C A49C U53A C54U C87U U148G,≤ -4.2
7,U6C C27U U33A A73G U90A G92A C105G A121G A137C U146G,≤ -4.2
8,U6A U55A G74C,≤ -4.2
9,U6C A23U C57A C72U C75G G94C,≤ -4.2
10,U7A C10A C14U C32G C36A U53G U55G U61A G67C U82G C87G C96U C103G,≤ -4.2
11,U7A A23G G48A G81A G84U A115C C116G G141U,≤ -4.2
12,U7A G34A U55G G84A A138G U146G,≤ -4.2
13,U6C U90A C93A C99A G100C C103A C116G A147C,≤ -4.2
14,U6C U61A G68C G84A G88U A121G G124A G141U U148C,≤ -4.2
15,U7C A12C C87A C105A C116G A138U G152U,≤ -4.2
16,U7A A16U A29U U31C C87A U145G,≤ -4.2
17,U6G A28U G58A A73G G126A,≤ -4.2
18,U6G G59C C85U G92U U127A,≤ -4.2
19,U7A C18U A23C A28U A39G G48C C57G U61A C76G,≤ -4.2
20,U7C C27G C96U,≤ -4.2
21,U7A U55A C85U C114A G136C,≤ -4.2

row,Variant,polymerase ribozyme fitness (log ratio)
1,U6G G48C A89C A91G A107C,≤ -4.2
2,U7C A29G G83A A122C,≤ -4.2
3,U6G C8G G11U A16G U56A A73C C95U,≤ -4.2
4,U7A C54U C57A A64C C75U G92C C105U A137C,≤ -4.2
5,U6C A17U A26U A73G U77C C85A G88C A91C G100C C105G C118A,≤ -4.2
6,U6G C95U C96G,-0.705
7,U6G U7A U53A C105G,≤ -4.2
8,U7C A37C A60U C85G,≤ -4.2
9,U7C A40C G83A C149G,≤ -4.2
10,U6G A20U A21C A22C A37C G128U,≤ -4.2
11,U6G A23G U144G,-3.95
12,U6G U9C U13A G94C,≤ -4.2
13,U7C A20G C93U,≤ -4.2
14,U7A C14A A16G G58C G83U,≤ -4.2
15,U6C G46A U82A G83U C93U,≤ -4.2
16,U7A A23G A29C A49C A73G C87G C118G C125A G128A,≤ -4.2
17,U6C A17G U44A G65U G68U C93A C125U,≤ -4.2
18,U6G G46A A49C G58A A97U,≤ -4.2
19,U7A A21G A22U G59U G86A A89U,≤ -4.2
20,U7A U61A G62A G71C C103G,≤ -4.2
